# Experimental data published in PubChem BioAssay AID720542 (National Center for Advancing Translational Sciences (NCATS), 2013).
# Hit rate of the full screen: of about 360,000 compounds, about 740 (0.21%) were called active. Inconclusive means that the source gave no clear call. Such entries were picked first, then a sample of the others. Calls come from the whole dose curve; as a rule, active = well fitted inhibition curve with a large enough effect; inconclusive = small, poorly fitted or top-dose-only effect; inactive = no such curve, though single readings can be large or run the other way. Potencies of inconclusive entries are doubtful fits and often do not repeat.
# Tested on: Plasmodium falciparum AMA1 (3D7) - RON2 peptide interaction
# Assay: qHTS for Inhibitors of AMA1-RON; Towards Development of Antimalarial Drug Lead: Primary Screen; note: nearly all actives have a fitted effect of over 45% in size;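 for activity change, negative = inhibition: 0% = vehicle wells and -100% = peptide control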
# Settings: AlphaScreen AMA1-biotinylated RON2 peptide binding; activity change, negative = inhibition: at 58.2 µM (top of the series) unless noted
# Procedure, shortened: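 AMA1 (3D7) with his tag at 25 nM final met compounds first, then biotinylated RON2 peptide at 25 nM; detection used donor plus acceptor beads, 10 µg/mL apiece, read by AlphaScreen after 30 min at room temperature.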
# Potency is the fitted concentration of half-maximal effect; tags give direction and shape of the fitted curve.
Structure (SMILES),Potency,"activity change, negative = inhibition"
CCOC(=O)c1c(CN(C)C)n(-c2ccccc2)c2cc(Br)c(OC)cc12,"inconclusive: 20 µM [inhibitor, partial curve]",
COc1ccc(N2CCN(CCCNC(=O)c3cc4sccc4n3C)CC2)cc1,"inconclusive: 26.7 µM [inhibitor, single point]",
CC1C/C(=C/c2cccs2)C(=O)/C(=C/c2cccs2)C1 (stereo unspecified),"inconclusive: 15.8 µM [inhibitor, partial curve]",
COc1ccc(CN(Cc2cccn2C)S(=O)(=O)c2ccc(C)cc2)cc1,"inconclusive: 20 µM [inhibitor, partial curve]",
CCCCCCCNC(=O)C1(CC2CC(c3cccc(Br)c3)=NO2)CCN(C(=O)Cc2ccc(F)cc2)CC1 (stereo unspecified),inactive,
c1csc(Cn2nnnc2CN2CCN(c3nc4ccccc4s3)CC2)c1,inactive,
NS(=O)(=O)c1ccc(CCNC(=O)c2ccccc2[N+](=O)[O-])cc1,,inactive: 3.06% [at 2.32 µM]
COc1ccc(CNC(=S)N2CCN(Cc3ccccc3)CC2)cc1,"inconclusive: 25.1 µM [inhibitor, single point]",
CC1CN(C(=O)COC(=O)/C=C/c2ccccc2)CC(C)O1 (stereo unspecified),inactive,
O=C(CSc1nccc(=O)[nH]1)N1N=C2/C(=C/c3ccco3)CCCC2C1c1ccco1 (stereo unspecified),inactive,
CCOC(=O)C1=C(C)N(C)C(=O)NC1c1cc2c(cc1[N+](=O)[O-])OCO2 (stereo unspecified),"inconclusive: 8.91 µM [inhibitor, partial curve]",
CCOC(=O)c1nc(Nc2ccc(N3CCC(C)CC3)cc2)c2ccccc2n1,"inconclusive: 35.5 µM [inhibitor, single point]",
CCSCCOC(=O)C1=C(C)NC2=C(C(=O)CCC2)C1c1coc2ccccc2c1=O (stereo unspecified),"inconclusive: 39.8 µM [inhibitor, partial curve]",
COC(=O)c1sc2ccccc2c1C(=O)OC,inactive,
O=C(NCc1ccccc1)C1=C[C@H](c2ccc(Br)cc2)C[C@H](OCc2ccc(CO)cc2)O1,inactive,
Cc1cc(/C=N/n2c(COc3ccccc3)nc3ccccc3c2=O)c(O)c([N+](=O)[O-])c1,,inconclusive: -35.9% [inhibitor] [at 11.6 µM]
COc1cccc(C(=O)N2CCN(Cc3cccc(F)c3)CC2)c1,"inconclusive: 25.1 µM [inhibitor, partial curve]",
CSc1ccc(CN2CCC(C)(Oc3ccc(-n4ccnc4)cc3)C2)cc1 (stereo unspecified),"inconclusive: 28.2 µM [inhibitor, single point]",
Cc1ccc(S(=O)(=O)N(CC(=O)NCCSCc2ccco2)c2cc(C)ccc2C)cc1,inactive,
COc1ccc(Cc2c(-c3cccc(Cl)c3)nc3ccc(C)cn23)c(C)c1,"inconclusive: 28.2 µM [inhibitor, partial curve]",
CN(C)c1ccnc2c[cH-]cc12.[Fe].c1ccc(-[c-]2[c-](-c3ccccc3)[c-](-c3ccccc3)[c-](-c3ccccc3)[c-]2-c2ccccc2)cc1 (stereo unspecified),"inconclusive: 17.8 µM [inhibitor, partial curve]",
O=[N+]([O-])c1ccc(N2CCCCC2)c2ncccc12,"inconclusive: 14.1 µM [inhibitor, partial curve]",

Structure (SMILES),Potency,"activity change, negative = inhibition"
Cn1c(=O)c(-c2ccccc2N)nc2ccccc21,inactive,
CN(C)c1ccc(CNc2nc(-c3ccccc3)nn2S(C)(=O)=O)cc1,"inconclusive: 25.1 µM [inhibitor, partial curve]",
O=[N+]([O-])c1ccccc1N/N=C\c1ccccc1F,"inconclusive: 7.94 µM [inhibitor, partial curve]",
COc1ccc(N2CCN(c3nc4c(C)cccn4c(=O)c3/C=C(\C#N)C(N)=O)CC2)cc1,"inconclusive: 39.8 µM [inhibitor, single point]",
Oc1cccc(/C=N/N2CCN(C3c4ccccc4-c4ccccc43)CC2)c1,"inconclusive: 17.8 µM [inhibitor, single point]",
CCN(CCNCC(O)COc1ccccc1C(C)C)c1cccc(C)c1 (stereo unspecified),"inconclusive: 20 µM [inhibitor, single point]",
COc1cc(C)ccc1OCCOCCN(C)Cc1ccccc1,"inconclusive: 39.8 µM [inhibitor, partial curve, poor fit]",
COc1ccccc1C(=O)OCC(=O)NC(=O)NC1CCCC1,inactive,
COc1ccc2oc(C(=O)NCc3cc(OC)c(OC)cc3OC)c(C)c2c1,"inconclusive: 25.1 µM [inhibitor, partial curve]",
COc1ccc(-c2cc(C(=O)N3CCN(c4ccccc4)CC3)c3ccccc3n2)cc1,"inconclusive: 17.8 µM [inhibitor, partial curve]",
O=C1CCC(CCC(=O)N2CCCC(C(=O)c3cccc(C(F)(F)F)c3)C2)=NN1 (stereo unspecified),"inconclusive: 1.26 µM [inhibitor, full curve, poor fit]",
CCC(C)NCCCOc1ccc(Cl)cc1C(C)(C)C (stereo unspecified),"inconclusive: 39.8 µM [inhibitor, partial curve, poor fit]",
O=c1c2c3c(sc2nc(NCCO)n1CCc1ccccc1)CCCCC3,"inconclusive: 39.8 µM [inhibitor, single point]",
Cc1ccc(C)c(S(=O)(=O)N2CCN(C(=O)Cc3c(F)cccc3Cl)CC2)c1,"inconclusive: 100 µM [inhibitor, partial curve]",
CCN1CCN(C(=S)NCCOC)CC1,"inconclusive: 20 µM [inhibitor, partial curve]",
O=C(OCCC12CC3CC(CC(C3)C1)C2)c1ccc(NCc2cc(O)ccc2O)cc1,"inconclusive: 28.2 µM [inhibitor, single point]",
COc1cc(CN2CCNC(=O)C2CC(=O)NCCC2=CCCCC2)cc(OC)c1 (stereo unspecified),inactive,
O=C(Nc1oc2ccccc2c(=O)c1-c1ccc(Cl)cc1)c1ccco1,inactive,
COc1ccc(NCc2nc3ccccc3n2CCOc2ccc(C)cc2)cc1,"inconclusive: 8.91 µM [inhibitor, partial curve]",
C(=Nc1ccc(N2CCOCC2)cc1)c1c[nH]c2ccccc12,inactive,
O=C1NC(=O)N(c2ccc(Cl)cc2)C(=O)/C1=C\c1ccc(Sc2nc3ccccc3[nH]2)o1,"inconclusive: 11.2 µM [inhibitor, partial curve]",
CC1Oc2ccccc2N(CC(=O)N2CCCCCC2)C1=O (stereo unspecified),inactive,

Structure (SMILES),Potency,"activity change, negative = inhibition"
N#C/C(=C\c1cn(CCOc2ccccc2F)c2ccccc12)C(=O)NCc1cccs1,inactive,
COc1ccccc1OCc1nc(-c2ccc([N+](=O)[O-])cc2)no1,"inconclusive: 12.6 µM [inhibitor, partial curve]",
Cc1ccc(C(C)C)c(OCC(O)CN2CC(C)OC(C)C2)c1 (stereo unspecified),"inconclusive: 10 µM [inhibitor, partial curve, poor fit]",
COc1cc(OC)cc(C(=O)NCc2ccc3c(c2)cc(C)n3C)c1,"inconclusive: 28.2 µM [inhibitor, partial curve]",
COc1cc2c(ccc3cc(OC)c(OC)c(O)c32)cc1O,"inconclusive: 10 µM [inhibitor, partial curve]",
CC(C)C[C@H](NC(=O)CC[C@H]1O[C@@H](n2ccc(=O)[nH]c2=O)[C@H](O)[C@@H]1O)C(=O)O,"inconclusive: 7.08 µM [inhibitor, single point]",
Cc1ccccc1-c1ccc(C=Nc2c(C)n(C)n(-c3ccccc3)c2=O)o1,"inconclusive: 26.7 µM [inhibitor, single point]",
COc1ccc(N2CCN(C(=O)c3ccc(Br)cc3)CC2)c([N+](=O)[O-])c1,"inconclusive: 5.62 µM [inhibitor, partial curve]",
COc1ccccc1NS(=O)(=O)c1cccc(C(=O)NCc2ccco2)c1,inactive,
Cc1c(Cl)ccc2c1NC(=O)[C@]21N[C@@H](CCC(N)=O)[C@H]2C(=O)N(c3ccc(F)cc3)C(=O)[C@H]21,inactive,
O=C(O)c1cc(N/N=C/c2ccc(N3CCOCC3)s2)ccc1Cl,inactive,
CN1CCN(C(=S)c2cn(Cc3ccccc3F)c3ccccc23)CC1,"inconclusive: 35.5 µM [inhibitor, single point]",
O=C(OCc1ccc(Cl)cc1Cl)c1cccnc1Cl,inactive,
CNc1ccc(/C=C2\CSc3ccccc3C2=O)cc1[N+](=O)[O-],"inconclusive: 5.01 µM [inhibitor, full curve, poor fit]",
CCN1CCN(CC(=O)Nc2ccc(C(C)=O)cc2)CC1,"inconclusive: 25.1 µM [inhibitor, single point]",
O=C(CCCn1c(SCC(=O)NCC2CCCO2)nc2ccccc2c1=O)NCc1ccccc1 (stereo unspecified),"inconclusive: 35.5 µM [inhibitor, single point]",
CC1CCCCC1NCC(=O)Nc1ccccc1-c1ccccc1 (stereo unspecified),"inconclusive: 39.8 µM [inhibitor, single point]",
CN1CCN(CCCNCc2cn(CCC#N)c3ccccc23)CC1,"inconclusive: 28.2 µM [inhibitor, single point]",
CCOc1cc(N2CCOCC2)c(OCC)cc1NC(=O)C1=NN(c2cccc(C)c2)C(=O)CC1,"inconclusive: 35.5 µM [inhibitor, single point]",
O=[N+]([O-])c1ccc(C2CCCC/C2=N/OCc2ccccc2F)c([N+](=O)[O-])c1 (stereo unspecified),"inconclusive: 28.2 µM [inhibitor, single point]",
COCCn1nnnc1C(c1ccc2ncccc2c1)N1CCN(c2ccccc2F)CC1 (stereo unspecified),"inconclusive: 26.7 µM [inhibitor, single point]",
COc1ccc(N=Nc2cnc(C)nc2-c2ccccc2)cc1,"inconclusive: 28.2 µM [inhibitor, partial curve]",
